# Source: publication PMC2920814 (PLoS ONE, 2010)
# Tested on: transient focal cerebral ischemia (tMCAo) in rats
# Experiment: Transient middle cerebral artery occlusion (tMCAo) 90 min, Neurokin study, infarct volumes by TTC staining
# Conditions: 90 min tMCAo; IV bolus 25 mg/kg 15 min prior + SC 54 mg/kg 15 min prior, 24 and 29 hrs after occlusion; 48 hrs post-occlusion
smiles,measurement,value
CC[C@@H](CO)Nc1nc(NCc2ccccc2)c2ncn(C(C)C)c2n1 [(S)-roscovitine],decrease of sub-cortical infarct volume,26% and 33%
same,decrease of total infarct volume,30%

# Values joined by “and” are separate entries in the source; they are usually repeats but may differ in a detail not shown here. Identical values can stand only once.
